# From PubChem BioAssay AID1159614 (National Center for Advancing Translational Sciences (NCATS), 2016)
# Screen size: about 45,000 compounds; about 65 (0.1%) were called active. The call rests on the fitted dose curve; in most records, active means well fitted activation curve with a large enough effect; inconclusive means small, poorly fitted or top-dose-only effect; inactive means no such curve, though single readings can be large or run the other way. The list shows a part of the results.
# Target: Galactocerebrosidase (Homo sapiens) (UniProt P54803)
# Assay: A Novel Cell-Based Assay to Identify Small Molecules for B -Galactocerebrosidase; further: 0% is about no effect; nearly all actives have a fitted effect of over 65% in size
# Conditions: 145M-Twi-hGALC-G270D cells (Twitcher mouse brain line with human GALC G270D), HMU-beta-Gal fluorescence, 48 h; series mostly up to 57.5 µM; activation: at the top concentration
# Outline: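 Fluorogenic HMU-b-Gal hydrolysis (0.1 mM final, pH 5.2 citrate-phosphate with 1 mg/mL sodium taurocholate; carbonate stop buffer) measures mutant GALC activity after compound treatment of live 145M-Twi Twitcher brain cells stably carrying human GALC-G270D, with wild-type GALC line alongside; activation sought.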
# Sequence of UniProt P54803 (P54803 whole entry, looked up): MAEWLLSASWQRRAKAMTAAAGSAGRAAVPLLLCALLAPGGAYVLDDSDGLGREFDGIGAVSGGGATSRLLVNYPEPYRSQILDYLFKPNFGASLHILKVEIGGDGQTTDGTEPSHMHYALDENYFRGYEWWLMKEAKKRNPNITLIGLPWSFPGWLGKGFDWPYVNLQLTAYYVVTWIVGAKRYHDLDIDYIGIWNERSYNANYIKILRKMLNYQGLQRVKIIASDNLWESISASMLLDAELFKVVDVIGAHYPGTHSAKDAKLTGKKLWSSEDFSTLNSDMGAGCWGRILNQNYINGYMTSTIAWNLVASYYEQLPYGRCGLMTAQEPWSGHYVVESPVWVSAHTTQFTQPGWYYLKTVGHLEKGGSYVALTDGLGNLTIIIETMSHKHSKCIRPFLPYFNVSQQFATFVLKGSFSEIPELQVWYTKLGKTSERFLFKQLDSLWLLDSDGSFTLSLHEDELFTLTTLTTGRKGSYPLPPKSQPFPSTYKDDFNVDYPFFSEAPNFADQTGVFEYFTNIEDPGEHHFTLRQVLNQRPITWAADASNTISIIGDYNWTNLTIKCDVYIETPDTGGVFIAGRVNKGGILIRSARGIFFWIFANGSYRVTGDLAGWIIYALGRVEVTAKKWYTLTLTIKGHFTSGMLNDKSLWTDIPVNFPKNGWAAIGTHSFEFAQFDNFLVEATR
row,SMILES,activation
1,O=C(CCCN1CCN(c2ccccn2)CC1)c1ccc(F)cc1,inactive: -0.85%
2,CC(C)OCCCNC(=O)c1cn(C)c2ccc(S(=O)(=O)N(C)C3CCCCC3)cc2c1=O,inactive: -16.4%
3,COc1ccc(N2CC(C(=O)NCCS(=O)(=O)N3CCN(c4ccccc4)CC3)CC2=O)cc1 (configuration not stated),inactive: -10.5%
4,Cc1ccc2occ(-c3cc(-c4ccccc4)nc4c3COc3ccccc3-4)c(=O)c2c1,inactive: -10.5%
5,CCOC(=O)c1cc(-c2ccccc2)n(CCCC(=O)Nc2ccc(C)c(Cl)c2)c1C,inactive: -12.2%
6,Cc1ccc(-n2c(=O)c3c(C)c(C(=O)N(C)C)sc3n(CC(=O)N(C)c3ccccc3)c2=O)cc1C,inactive: -8.46%
7,Cc1ccc(C)c(NC(=O)CSc2nc3nccnc3c(=O)n2CCc2c[nH]c3ccccc23)c1,inactive: -13.3%
8,Cc1c(C(=O)N2CCCC2)oc2c1-c1nn(CC(=O)NCc3ccc(OC(C)C)cc3)cc1CC2,inactive: -10.3%
9,CCc1cccc(NC(=O)c2cnc(N3CCOCC3)c3ccccc23)c1,inactive: -4.22%
10,CN(CC(=O)Nc1ccc(OC(F)(F)F)cc1)S(=O)(=O)c1ccc2c(c1)CCC(=O)N2,inactive: -17%
11,CCN(CC)S(=O)(=O)c1ccc2c(c1)N(CC(=O)N1CCN(c3cccc(C)c3)C(C)C1)C(=O)CO2 (configuration not stated),inactive: -11.2%
12,COc1cc(C(=O)NC2(C(F)(F)F)C(=O)NC(C)=C2C#N)cc(OC)c1OC (configuration not stated),inactive: -13.8%
13,CCN(C(=O)CSc1nc2ccccc2c2nc(CCn3c(C)nc4ccccc43)nn12)c1cccc(C)c1,inactive: -20.1%
14,COc1ccc(-c2csc3nc(-c4ccc(Cl)cc4)oc(=O)c23)cc1,inactive: -17.1%
15,Cc1cccc(NC(=O)CCn2cnnn2)c1,inactive: 8.12%
16,CCc1cccc(C)c1NC(=O)CN1CCN(Cc2ccccc2Cl)S1(=O)=O,inactive: 5.17%
17,CCc1ccc(NC(=O)Cn2c(=O)c3cccn3c3ccccc32)cc1,inactive: 2.14%
18,O=C(Nc1ccc(-c2nc3cc(Cl)ccc3o2)cc1)c1cc(Br)ccc1Cl,inactive: -10.6%
19,Cn1c(=O)oc2cc(S(=O)(=O)NC(CC(=O)O)c3cccc(Br)c3)ccc21 (configuration not stated),inactive: -15.6%
20,COc1ccc(NC(=O)CSc2nnc(N)s2)cc1,inactive: -6.94%
21,CC(=O)c1ccc(N2CCN(C(=O)Nc3ccc(C)cc3)CC2)cc1,inactive: -6.67%

row,SMILES,activation
1,Cc1ccc(Nc2c(-c3ccc(N4CCOCC4)cc3)nc3ccc(C)cn23)cc1,inactive: 8.63%
2,COc1cc(C(=O)Nc2ccc3nc4n(c(=O)c3c2)CCCCC4)cc(OC)c1OC,inactive: -8.17%
3,COc1ccc(NS(=O)(=O)c2cnc(N)nc2)cc1Cl,inactive: -29.9%
4,COc1ccc(-c2nc3ccccc3o2)cc1NC(=O)COc1cc(C)cc(C)c1,inactive: -7.52%
5,Cc1oc2c(c1C(=O)Nc1ccc(OC(F)(F)F)cc1)C1=NCCN1C=N2,inactive: -11.8%
6,O=C(COc1ccc2oc3c(c2c1)CCCC3)Nc1cccc(Br)c1,inactive: -4.24%
7,Cc1cc(=O)[nH]c2nnc(SCC(N)=O)n12,inactive: -20.2%
8,CC(=O)c1ccc(Oc2ncnc3c2oc2ccccc23)cc1,inactive: -7.35%
9,COc1ccc(NC(=O)CCS(=O)(=O)c2cc3c4c(c2)CCN4C(=O)CC3)c(OC)c1,inactive: -16.1%
10,CC1CCN(C(=O)Cn2cc(SCC(=O)NCc3ccc(F)cc3)c3ccccc32)CC1,inactive: -7.94%
11,COc1cc(C(=O)NCCc2sc(-c3ccc(C)cc3)nc2C)cc(OC)c1OC,inactive: -18.6%
12,Cc1nnc(N2C(=O)c3oc4ccccc4c(=O)c3C2c2cccc(OCCC(C)C)c2)s1 (configuration not stated),inactive: -10.5%
13,CCCCc1ccc(C(=O)c2c(N)c(C(=O)Nc3cccc(OC)c3)c3ccccn23)cc1,inactive: -16.6%
14,Cc1ccccc1CN1C(=O)c2ccccc2S(=O)c2ccc(C(=O)N3CCOCC3)cc21 (configuration not stated),inactive: -15.4%
15,COc1ccc(NC(=O)CSc2nc3ccccc3nc2N2CCOCC2)c(OC)c1,inactive: -7.72%
16,Cc1ccc(-c2noc(-c3ccc(N4CCOCC4)c([N+](=O)[O-])c3)n2)cc1,inactive: -6.03%
17,Cc1ccc(C(=O)c2oc3ccccc3c2NC(=O)COc2ccccc2C)cc1,inactive: 7.69%
18,O=[N+]([O-])c1cc(-c2nc(-c3ccccc3)no2)ccc1NCc1ccco1,inactive: -6.22%
19,Cn1c(=O)c2cc(C(=O)NCCCN3CCN(c4ccc(F)cc4)CC3)sc2c2ccccc21,inactive: -3.62%
20,COCCCNC(=O)c1c(NC(=O)Cc2coc3cc(C)ccc23)sc2c1CCCC2,inactive: 13.5%
21,COc1ccc(C(=O)/C=C/c2cn(CC(O)CN3CCCCCC3)c3ccccc23)cc1OC (configuration not stated),inactive: -1.27%

row,SMILES,activation
1,Cc1ccc(C2CC(=O)N(Cc3ccc(F)cc3)c3c2c(C)nn3-c2nc(C)cc(C)n2)cc1 (configuration not stated),inactive: -14.4%
2,COc1ccc(CCNC(=O)CCCn2c(=O)c3ccccc3n(CC(=O)Nc3ccccc3C)c2=O)cc1OC,inactive: -8.46%
3,N[C@H](Cc1c[nH]c2ccccc12)C(=O)O,inactive: -14.1%
4,Cc1ccccc1CNC(=O)CN1C(=O)CCCc2ccccc21,inactive: 14%
5,Cc1ccc2scc(N3CCCCC3C)c(=O)c2c1 (configuration not stated),inactive: -14.2%
6,O=C(CN1CCN(Cc2ccc(F)cc2)C1=O)NCc1ccc(F)cc1,inactive: -10.7%
7,COc1ccc(Cn2c(SCC(=O)N3CCN(c4ccc(F)cc4)CC3)nc3ccccc32)cc1,inactive: 2.49%
8,CCc1ccccc1NC(=O)CN(c1ccccc1OC)S(=O)(=O)c1ccc(C)cc1,inactive: -11.8%
9,COCCNC(=O)Cn1c(-c2cccs2)cc2cc(Cl)ccc21,inactive: -10.1%
10,Cc1ccsc1CN(C(=O)COc1ccccc1Cl)C1CCS(=O)(=O)C1 (configuration not stated),inactive: -4.46%
11,O=C(COc1ccccc1)N(Cc1cccnc1)c1nc2c(F)cc(F)cc2s1,inactive: -1.29%
12,Cc1sc(C2C(C#N)=C(N)N(c3ccc(Cl)cc3)C3=C2C(=O)CCC3)cc1CN1CCOCC1 (configuration not stated),inactive: -15.5%
13,CC1CCN(S(=O)(=O)c2ccc3c(c2)N(CC(=O)NCCCOC(C)C)C(=O)CO3)CC1,inactive: -5.35%
14,COCCNC(=O)CN1C(=O)COc2ccc(S(=O)(=O)N3CCCCCC3)cc21,inactive: -14.3%
15,CCC(C(=O)NC1CCCCC1)n1c(SCc2ccccc2F)nc2ccncc21 (configuration not stated),inactive: -6.84%
16,CCOC(=O)CSc1nc2sc3c(c2c(=O)n1Cc1ccccc1)CC(C(C)C)OC3 (configuration not stated),inactive: -5.33%
17,CCC(C)NC(=O)CCCn1c(=O)c2cccn2c2ccccc21 (configuration not stated),inactive: -13.2%
18,CCN(Cc1ccccc1)c1nc2c(S(=O)(=O)c3ccccc3)nnn2c2ccc(Cl)cc12,inactive: -21.9%
19,Cc1nn(C(C)C(=O)NCCc2ccccc2)c(=O)c2c1sc1ccccc12 (configuration not stated),inactive: 4.43%
20,Cc1ccccc1C(=O)Nc1cccc(NC(=O)c2ccc(C(C)(C)C)cc2)c1,inactive: -8.64%
